PubChem BioAssay AID1508624 (National Center for Advancing Translational Sciences (NCATS), 2021)
Among all 48,000 compounds or so, about 120 (0.25%) were called active. Not shown: some 4% with an inconclusive outcome. The call rests on the fitted dose curve; in most records, active means well fitted activation curve with a large enough effect; inconclusive means small, poorly fitted or top-dose-only effect, or another doubt; inactive means no such curve, though single readings can be large or run the other way. This is one part of the list.

Test: Primary qHTS for Identification of Small Molecule Activators of Huntingtin-Antisense Promoter Activity; further: nearly all actives have a fitted effect of over 55% in size
Conditions: HEK293 HTT-AS promoter firefly luciferase reporter, 24 h; series mostly up to 57.5 µM; activity change, positive = activation: at the top concentration
How it was run: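 Quantitative HTS used concentration series of up to 57.5 uM final on HEK293 luciferase reporter cells, 24 h at 37 degrees C. Readout was Dual-Glo firefly luminescence.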

Activity change, positive = activation, inactive:
Cc1ccc(NC(=O)c2cnc(SCC(=O)N3CCCc4ccccc43)n(C)c2=O)cc1C -6.32%
Cc1cccc(NC(=O)c2cc3c(C)nn(-c4ccccc4)c3s2)c1 -16.7%
O=C(NCc1ccc2c(c1)CCN2C(=O)c1ccncc1)c1cccc(F)c1 11.7%
CCOC(=O)c1[nH]c(C)c(C(=O)NCc2ccccc2Cl)c1C -17.7%
O=C(CCc1nnc2n(Cc3ccccc3Cl)c(=O)c3ccccc3n12)Nc1ccccc1 -2.44%
COc1ccc(NC(=O)c2ccc(-c3nc(CSc4ccccc4)c(C)o3)cc2)c(OC)c1 -14.6%
CCCCN(c1ccccc1)S(=O)(=O)c1cc2c3c(c1)C(C)C(=O)N3CCC2 (stereo not given) -29.7%
CCOc1ccc(NC(=O)Cn2cc(C(=O)c3ccccc3)c(=O)c3cc(OC)ccc32)cc1 -18.1%
CCN1C(=O)c2ccccc2S(=O)c2ccc(C(=O)N3CCN(c4cccc(Cl)c4)CC3)cc21 (stereo not given) -43.3%
COC(=O)c1cc(NC(=O)CCc2c(C)nc3nc(C)nn3c2C)cc(C(=O)OC)c1 -12%
O=C(Cc1ccc(F)cc1)NCCc1csc2nc(-c3ccc(Cl)cc3)nn12 -27.2%
CCCCn1c(SCc2ccccc2C#N)nc2c(sc3ccccc32)c1=O -1.2%
Cc1ccc(-n2ncc3c(=O)n(Cc4cccc(C(F)(F)F)c4)cnc32)cc1C -10.6%
CC1=C(C(=O)Nc2ccccc2C)C(c2ccc[nH]2)n2ncnc2N1 (stereo not given) -0.309%
CCOC(=O)Cn1c(=O)cc(C)c2c(C)nn(-c3cccc(F)c3)c21 -14.6%
Cc1ccc2c(c1)-c1onc(C(=O)N(C)c3ccc(F)cc3)c1CO2 11.9%
Cc1ccc(CNC(=O)CCCn2nc(C)n3c(cc4sccc43)c2=O)cc1 2.33%
COc1cccc(C(=O)c2cn(CC(=O)Nc3ccc4c(c3)OCCO4)c3nc(C)ccc3c2=O)c1 -18.6%
Cc1ccc(NC(=O)NCc2c(-n3cccc3)sc3c2CCCC3)c(Cl)c1 -4.62%
CCC(=O)N1CCc2cc(S(=O)(=O)NC(CC(C)C)C(=O)NCc3cccc(OC)c3)ccc21 (stereo not given) -6.36%
CCOC(=O)c1cccc(NC(=O)NC2COc3ccccc3C2)c1 (stereo not given) -20.5%
Cc1cccc(C)c1NC(=O)c1cc2sccc2n1Cc1ccc(F)cc1 -15.7%
CCN(Cc1ccccc1)S(=O)(=O)c1ccc(F)c(C(=O)Nc2ccc(C(C)C)cc2)c1 -16.1%
COc1ccc(OC)c(CNc2ncc(-c3ccc(Cl)cc3)n2C)c1 -6.19%
COc1cc(NC(=O)C2CCN(S(=O)(=O)c3c(C)noc3/C=C/c3c(C)cc(C)cc3C)CC2)cc(OC)c1 12.9%
Cc1ccc(CNC(=O)c2cn(C)c3ccc(S(=O)(=O)N4CCC(C)CC4)cc3c2=O)cc1 -1.66%
O=C(NCCCc1ccccc1)c1ccc2c(c1)sc1nc(-c3ccc(F)cc3)cn12 -7.35%
COc1ccccc1N1CCN(CC(O)COc2cccc3ccccc23)CC1 (stereo not given)
Cc1ccccc1CN1C(=O)c2ccccc2Sc2ccc(C(=O)NCCCN3CCOCC3)cc21 -20.5%
Cc1ccc(Sc2c(C)nn(-c3ccccc3)c2OC(=O)CC(C)C)cc1 -8.24%
CN1CCCC(CC2c3ccccc3Sc3ccccc32)C1 (stereo not given) -16%
CCOc1ccc(CC(=O)NCc2ccc3c(c2)CCN3C(=O)c2ccc(F)cc2)cc1OCC -18.6%
CCOc1ccc(C2c3[nH]c4ccccc4c3CCN2C(=O)CCC2CCCC2)cc1 (stereo not given) -26.8%
CCOC(=O)C1CCCN(S(=O)(=O)c2cc(Br)cc3c2N(C(=O)CC)CC3)C1 (stereo not given) -4.65%
Cc1ccc(COC(=O)c2ccc(-c3nnn(Cc4ccc(C)cc4)n3)cc2)cc1 -1.87%
Cc1ccn2c(=O)c(NC(=O)c3cccc([N+](=O)[O-])c3C)c(C)nc2c1 -20.4%
CCN(CCCNC(=O)CN1N=C(c2ccc(C)cc2)CCC1=O)c1ccccc1 -13.3%
O=c1cc(-c2ccccc2)nc(SCc2nc(-c3cccc(C(F)(F)F)c3)no2)[nH]1 -2.35%
CCCCN(CC)C(=O)Cn1cc2c(n1)-c1c(oc(C(=O)N3CCCC3)c1C)CC2 -24.3%
CC(=O)C(Sc1nc(-c2ccccc2Cl)nc2c1c(=O)n(C)c(=O)n2C)C(=O)N(C)C (stereo not given) -8.79%
CN1CCC(=C2c3ccccc3CC(=O)c3sccc32)CC1
Cc1ccc(Cn2c(Cc3ccccc3)nc3ccccc32)cc1 -32.3%
COC(=O)c1ccc(NC(=O)CCOc2ccccc2)cc1 27.9%
CC(COc1ccccc1)NN (stereo not given) -1.87%
CCOc1ccc(CN2C(=O)c3ccccc3Sc3ccc(C(=O)NC4CCC(C)CC4)cc32)cc1 (stereo not given) -28.8%
Cc1ccc(N(CC(=O)NCc2ccc(OC(C)C)cc2)S(=O)(=O)N(C)C)cc1 -24.6%
CCOC(=O)c1ccccc1NC(=O)CCc1c(C)nc2c(c1C)c(=O)n(C)c(=O)n2C -2.23%
COc1ccc(CNC(=O)CCS(=O)(=O)c2cc3c4c(c2)CCN4C(=O)CC3)cc1 -1.7%
O=C(NC1CC(=O)N(c2ccc(F)cc2)C1)C(c1ccccc1)c1ccccc1 (stereo not given) -15%
Cn1cc(C(=O)N2CCN(c3ccccc3)CC2)c(=O)c2cc(S(=O)(=O)N3CCCC3)ccc21 -4.53% [at 11.5 µM, percent change from vehicle, -100% = no light]
Cc1cccc(NC(=O)Cn2c(=O)oc3cc(S(=O)(=O)N4CCCCCC4)ccc32)c1 -50.4%
COc1ccc(-c2noc(CSc3nnc(-c4ccncc4)n3-c3ccc(OC)cc3)n2)cc1 -36.5%
COc1ccccc1NC(=O)C1=C(C)Nc2nc(SCc3ccccc3)nn2C1c1cccs1 (stereo not given) -18.8%
Cc1ccc(NC(=O)CN2C(=O)c3ccccc3Sc3ncccc32)c(C)c1 -30%
O=C(NCCc1ccc(Cl)cc1)c1ccc2c(c1)N(Cc1ccccc1)C(=O)CS2 -34%
CC(=O)c1ccc(NC(=O)c2nn(C)c3c2COc2ccccc2-3)cc1 21.4%
CCn1c(SCC(=O)Nc2cc(Cl)ccc2OC)nc2c([nH]c3ccccc32)c1=O -10.3%
CCOc1ccccc1NC(=O)N1CCC(N2CCN(Cc3ccccc3)C(=O)C2=O)CC1 -8.42%
CC(Oc1ccccc1F)C(=O)N1CCC(c2nc3ccccc3o2)CC1 (stereo not given) -27.5%
CCOC(=O)c1c(NC(=O)c2cc(-c3ccc(Br)cc3)on2)sc(C)c1C -1.38%
CCc1cc2c(-c3ccccc3)cc(=O)oc2c2c1OCN(Cc1ccc(C)cc1)C2 -16.6%
O=c1c2ccccc2nc(-c2ccc(Cl)cc2)n1CCCCOc1ccc(F)cc1 -2.38%
CC(C)c1ccc(NC(=O)CN(C)S(=O)(=O)c2ccc3c(c2)n(C)c(=O)c(=O)n3C)cc1 -10.2%
CCOC(=O)N1CCN(CCC(=O)Nc2cc(C)ccc2C)CC1 -4.39%
CCn1cnc2cc(NCc3ccc(N(C)C)cc3)ccc21 12.5%
CCC1CCCCN1C(=O)CSc1nc(-c2ccc(OC)cc2)cc(C(F)(F)F)n1 (stereo not given) -43.5%
CCCCCCCCCCCCOS(=O)(=O)O 0.895%
CCn1cc2nc(SCC(=O)Nc3cccc(Cl)c3C)n(Cc3ccc(Cl)cc3)c(=O)c2n1 -14%
CCc1ccc(CNC(=O)c2cnc3sc(N4CCCCCC4)nn3c2=O)cc1 -1.75%
CCOc1ccc(C(=O)Nc2ccc3nc(SCC(=O)N4CCCC4)sc3c2)cc1 -7.47%
Cc1ccc(CSc2nc3cccnc3n2Cc2nc(-c3ccccc3F)oc2C)cc1 -8.56%
CCOc1ccc(CNC(=O)CN2C(=O)CSc3c2c(C)nn3-c2ccccc2)cc1 -2.99%
COCCNC(=O)c1ccc(NC(=O)N2CCCCc3ccccc32)cc1 -18.6%
O=C(C1CC1)N1CCc2cc(Br)cc(S(=O)(=O)Nc3ccc(C(F)(F)F)cc3)c21 -50.3%
CCOc1ccc(-n2nc3ccc(NC(=O)COc4ccccc4C)cc3n2)cc1 -59.8%
COc1ccc(NC(=O)C(=O)NCCc2csc3nc(-c4ccccc4C)nn23)cc1 -8.05%
CCCC(=O)Nc1nnc(S(=O)(=O)N(C)c2ccccc2)s1 -8.11%
COc1ccc(S(=O)(=O)N(CCc2ccccc2)CC(=O)NCc2ccc(C)cc2)cc1 -21.3%
COc1ccccc1CCNC(=O)C1CCN(c2nc3ccccc3nc2C(F)(F)F)CC1 19.4%
COC(=O)c1ccccc1NC(=O)CSc1c2c(nc3ccc(Cl)cc13)CCCC2 -3.37%
COc1cccc(CNC(=O)C2CCCN(c3nnc(-n4c(C)ccc4C)s3)C2)c1 (stereo not given) -10.2%
CC1=C[C@@H]2[C@@H]([C@@H](O)C[C@@]3(C)[C@H]2C[C@@H](C)[C@]3(O)C(=O)CO)[C@@]2(C)Cc3cnn(-c4ccccc4)c3C=C12 -24.4%
CCCN(CCC)C(=O)C(CCC(=O)O)NC(=O)c1ccccc1 (stereo not given) -7.73%
O=C(NCC(c1cccnc1)N1CCN(Cc2ccccc2)CC1)C(=O)Nc1ccc(F)cc1 (stereo not given) 18.1%
CCOC(=O)c1ccccc1NC(=O)Cn1c(=O)n(-c2ccc(CC)cc2)c(=O)c2c(C)c(C(=O)N(C)C)sc21 -16.6%
CCOc1ccccc1CNC(=O)c1ccc2c(c1)nc1n2CCC(C)C1 (stereo not given) 0.383%
CC(=O)c1ccc(N2C(=O)Nc3ccccc3S2(=O)=O)cc1 -16%
CC(C)Sc1nc2sc3c(c2c(=O)n1-c1ccccc1)CCCC3 -19.4%
Cc1ccc(CSc2cn(CCNC(=O)c3cccs3)c3ccccc23)cc1 -41.8%
O=C(Nc1ccc(F)c(Cl)c1)C1CCN(S(=O)(=O)c2ccc3c(c2)CCCN3C(=O)C2CCC2)CC1 -18%
Cc1ccc(N2CC(NC(=O)c3ccccc3Br)CC2=O)cc1 (stereo not given) -8.67%
O=C(Cn1c(SCC(=O)Nc2ccc(F)cc2)nc2ccccc21)NCc1ccc(Cl)cc1 -20.5%
Nc1ncc(S(=O)(=O)Nc2ccc(OC(F)(F)F)cc2)cn1 -18.4%
CCOc1ccc(C(=O)NCCc2sc(-c3ccc(F)cc3)nc2C)cc1 -11.2%
CCOC(=O)c1ccc(NC(=O)CN2C(=O)c3cccnc3Sc3ccccc32)cc1 18.6%
